In PubChem BioAssay AID504339 (National Center for Advancing Translational Sciences (NCATS), 2011):
In all, about 390,000 compounds went through this assay and about 17,000 (4.4%) were called active. Inconclusive means that the source gave no clear call. Such entries were picked first, then a sample of the others. The call rests on the fitted dose curve; in most records, active means well fitted inhibition curve with a large enough effect; inconclusive means small, poorly fitted or top-dose-only effect; inactive means no such curve, though single readings can be large or run the other way. Where the call is inconclusive, the potency comes from a doubtful curve fit.
Further: nearly all actives have a fitted effect of over 50% in size.
On the % scale 0 is the no-effect control and ±100 the full control effect; potency means the concentration at half of the fitted maximal effect; tags describe the fitted curve by direction and shape.

These compounds were tested against Lysine-specific demethylase 4A (Homo sapiens) (UniProt O75164) (assay: qHTS Assay for Inhibitors of JMJD2A-Tudor Domain). Conditions: AlphaScreen JMJD2A-Tudor / H3K4me3 peptide binding; activity change, negative = inhibition: at 114 µM (top of the series).
Chain of UniProt O75164 (O75164 whole entry, looked up, the tested form may be a part): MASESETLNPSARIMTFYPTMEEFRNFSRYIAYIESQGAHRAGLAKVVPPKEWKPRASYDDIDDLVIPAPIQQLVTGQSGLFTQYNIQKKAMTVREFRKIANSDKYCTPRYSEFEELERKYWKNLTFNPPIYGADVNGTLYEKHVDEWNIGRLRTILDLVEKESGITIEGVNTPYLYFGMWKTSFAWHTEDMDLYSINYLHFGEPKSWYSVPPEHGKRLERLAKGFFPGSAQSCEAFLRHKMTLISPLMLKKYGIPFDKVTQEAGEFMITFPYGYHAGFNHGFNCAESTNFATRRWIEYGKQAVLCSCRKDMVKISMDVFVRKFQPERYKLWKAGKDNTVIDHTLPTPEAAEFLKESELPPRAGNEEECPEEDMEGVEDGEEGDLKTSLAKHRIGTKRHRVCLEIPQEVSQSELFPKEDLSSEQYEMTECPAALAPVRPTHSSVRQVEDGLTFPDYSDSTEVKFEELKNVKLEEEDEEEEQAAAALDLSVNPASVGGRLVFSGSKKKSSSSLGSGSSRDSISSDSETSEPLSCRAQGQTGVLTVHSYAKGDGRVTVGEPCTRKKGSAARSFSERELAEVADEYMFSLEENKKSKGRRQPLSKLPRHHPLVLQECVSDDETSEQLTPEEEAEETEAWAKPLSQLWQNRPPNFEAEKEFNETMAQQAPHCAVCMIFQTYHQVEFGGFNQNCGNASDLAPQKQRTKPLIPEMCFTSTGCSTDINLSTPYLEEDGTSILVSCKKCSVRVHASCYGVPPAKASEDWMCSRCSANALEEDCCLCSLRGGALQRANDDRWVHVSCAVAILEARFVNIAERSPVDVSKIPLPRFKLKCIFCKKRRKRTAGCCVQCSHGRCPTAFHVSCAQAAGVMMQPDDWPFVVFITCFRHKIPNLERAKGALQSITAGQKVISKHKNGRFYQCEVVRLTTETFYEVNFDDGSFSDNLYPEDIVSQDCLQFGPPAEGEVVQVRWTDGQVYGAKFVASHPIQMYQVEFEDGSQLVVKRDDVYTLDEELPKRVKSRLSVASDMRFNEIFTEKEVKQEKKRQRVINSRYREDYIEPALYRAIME
For `CCn1cc2nc(SCc3ccccc3Cl)n(Cc3ccc(OC)cc3)c(=O)c2n1`, the Potency was inconclusive: 79.4 µM [inhibitor, partial curve]. For `O=C(CCS(=O)(=O)c1ccccc1)Nc1ccc2c(c1)OCO2`, the Potency was inconclusive: 31.6 µM [inhibitor, partial curve]. `Cn1c(NCc2ccccc2)nc2c1c(=O)n(Cc1ccccc1)c(=O)n2C` was tested, and the Potency was inconclusive: 56.2 µM [inhibitor, partial curve]. In the case of `CCOc1c(Br)cc(CNc2ccc3c(c2)OCCO3)cc1OC`, the Potency is reported as active: 50.1 µM. For `COc1ccccc1CNS(=O)(=O)c1ccc(N2CCCC2)cc1Br`, the “activity change, negative = inhibition” value was inactive: -15.8%. `Cc1ccc(N=Nc2c(=O)[nH]n3c(=O)cc(C)[nH]c23)cc1` was tested, and the Potency was inconclusive: 70.8 µM [inhibitor, single point]. With `COc1ccc(C(Nc2ccccn2)c2ccc3ccc(C)nc3c2O)cc1C` (stereo not given) the Potency was inconclusive: 6.31 µM [inhibitor, full curve]. For `CCc1cccc(NC(=O)COC(=O)c2cc([N+](=O)[O-])ccc2N2CCOCC2)c1`, the Potency was inconclusive: 50.1 µM [inhibitor, partial curve]. With `Cc1cccc(N(C(=O)c2nsc(Cl)c2Cl)C(C(=O)NC2CCCC2)c2ccc(O)cc2)c1C` (stereo not given) the Potency was inconclusive: 56.2 µM [inhibitor, partial curve]. `CCCOc1ccc(-c2csc(N)n2)cc1[N+](=O)[O-]` was tested, and the Potency was inconclusive: 56.2 µM [inhibitor, partial curve]. In the case of `COc1ccc(NC(=O)C(=O)NCCc2csc3nc(-c4ccccc4F)nn23)cc1OC`, the “activity change, negative = inhibition” value is reported as inactive: -4.47%. With `Nc1cnn(Cc2ccc(F)cc2)c1` the “activity change, negative = inhibition” value was inactive: -20.9%. With `CCN1CCN(c2oc(-c3ccc(COc4ccccc4C)o3)nc2C#N)CC1` the Potency was active: 50.1 µM. `COc1ccc(C)cc1NC(=O)c1ccc(CN2CCN(c3ccccc3)CC2)cc1` was tested, and the Potency was inconclusive: 39.8 µM [inhibitor, partial curve]. In the case of `CN1CCN(CCOc2cccc(Cl)c2)CC1`, the Potency is reported as inconclusive: 39.8 µM [inhibitor, partial curve]. For `Oc1c(C(Nc2ccccn2)c2ccccc2F)ccc2cccnc12` (stereo not given), the Potency was active: 14.1 µM. In the case of `Cc1noc(C)c1S(=O)(=O)N(CC(=O)Nc1ccc(F)cc1F)c1ccc(C(C)C)cc1`, the “activity change, negative = inhibition” value is reported as inactive: -11%. In the case of `CCOc1c(Cl)cc(CNc2ccc(N3CCCC3)cc2)cc1OC`, the Potency is reported as active: 14.1 µM. With `CC(=O)N(/C=C1\SC(=S)N(c2ccccc2)C1=O)c1ccccc1` the Potency was inconclusive: 44.7 µM [inhibitor, partial curve]. In the case of `COc1cc(-c2nc(S(=O)(=O)c3ccc(C)cc3)c(N3CCOCC3)o2)cc(OC)c1OC`, the Potency is reported as inconclusive: 56.2 µM [inhibitor, partial curve, poor fit]. With `CCN(CC)CCNC(=O)c1ccc(NC(=O)C2CCN(c3ncnc4sc(C)c(C)c34)CC2)cc1` the “activity change, negative = inhibition” value was inactive: -26.6%. `CCC(C)NC(=O)C1(NC(=O)Nc2ccccc2)CCCCC1` (stereo not given) was tested, and the Potency was active: 17.8 µM. With `CC(=O)Nc1cc(NC(C)=O)cc(C(=O)N2CCCC3CCCCC32)c1` (stereo not given) the Potency was active: 56.2 µM. In the case of `COc1cc(C2NC(C(=O)O)Cc3c2[nH]c2ccccc32)cc(OC)c1OC` (stereo not given), the Potency is reported as active: 56.2 µM. `O=C1c2cccc3cccc(c23)C(=O)N1CC1CCN(CC(O)COCc2ccc3c(c2)OCO3)CC1` (stereo not given) was tested, and the Potency was inconclusive: 50.1 µM [inhibitor, partial curve]. For `O=C(Nc1nnc(-c2ccc(Cl)cc2)o1)c1cccc(N2C(=O)CCC2=O)c1`, the Potency was inconclusive: 89.1 µM [inhibitor, single point]. In the case of `C[C@H](CO)N1C[C@H](C)[C@H](CN(C)CC2CCCCC2)Oc2ccc(NS(=O)(=O)c3ccc(F)cc3)cc2CC1=O`, the Potency is reported as inconclusive: 79.4 µM [inhibitor, partial curve]. In the case of `O=C(Nc1ccc(Cl)c(Cl)c1)Nc1nccs1`, the “activity change, negative = inhibition” value is reported as inactive: -20.1%. In the case of `Nc1c2c(nc3ccc(Br)cc13)N(Cc1ccccc1)CC2`, the Potency is reported as inconclusive: 56.2 µM [inhibitor, partial curve, poor fit]. In the case of `OCCN(Cc1cccnc1)Cc1ccccn1`, the Potency is reported as active: 50.1 µM. With `COc1cccc(OC)c1C(=O)Oc1ccc2c(c1)O/C(=C\c1ccncc1)C2=O` the Potency was inconclusive: 44.7 µM [inhibitor, partial curve]. In the case of `Cc1c(Br)c(-c2n[nH]c(=S)n2Cc2ccco2)nn1C`, the Potency is reported as inconclusive: 3.55 µM [inhibitor, single point]. With `COc1cc(NC(=O)C2=C(N3CCOCC3)/C(=C\c3ccc(N(C)C)cc3)CCC2)cc(OC)c1OC` the Potency was active: 28.2 µM. In the case of `C=CCNc1oc(Cc2cccc3ccccc23)nc1C#N`, the Potency is reported as inconclusive: 50.1 µM [inhibitor, partial curve]. With `COc1ccc(C(=O)N/N=C/c2c(C)[nH]c(=O)[nH]c2=O)cc1` the Potency was inconclusive: 100 µM [inhibitor, partial curve].
